{"source": "the supplement of paper PMC3334620", "note": "In all, about 33,000 sequences were measured (“E-score (-0.5 to 0.5)”: median about -0.01, highest 2% from about 0.26 on). Some of the results follow.", "data": [{"biological_target": "Ste12 (UniProt P13574)", "assay": "PBM E-score (8-mer binding enrichment) (E-score (-0.5 to 0.5)); higher = stronger / more preferred TF binding; most listed sequences are background and not binding sites", "details": "protein concentration: 200 nM; construct: GST-DNA-binding domain", "in_short": "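Full-length yeast transcription factors or their DNA-binding domains, GST-tagged and expressed with PURExpress, were applied at about 100-200 nM to universal all-10-mer Agilent arrays. These arrays had been made double-stranded by primer extension on fresh or once-stripped slides. Detection used fluorescent anti-GST, normalisation used masliner, and E-scores for ungapped eight-base words pooled with reverse complements came from the Universal PBM Analysis Suite.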", "values": [{"sequence": "CCGAGGAG", "PBM E-score": -0.0113}, {"sequence": "CGGAGTAG", "PBM E-score": -0.0132}, {"sequence": "GACAATTA", "PBM E-score": 0.208}, {"sequence": "ACGAGGCG", "PBM E-score": -0.0917}, {"sequence": "ATACTCGG", "PBM E-score": -0.0182}, {"sequence": "AAGAATAC", "PBM E-score": 0.0746}, {"sequence": "AGTTGAAC", "PBM E-score": -0.0885}, {"sequence": "AGTGTTTC", "PBM E-score": 0.332}, {"sequence": "TGCTCACA", "PBM E-score": -0.148}, {"sequence": "AAGGCCCC", "PBM E-score": -0.238}, {"sequence": "TGGATGAA", "PBM E-score": -0.0304}, {"sequence": "CGCCCCCG", "PBM E-score": 0.0361}, {"sequence": "ACTTACGC", "PBM E-score": -0.0921}, {"sequence": "GACTCTGA", "PBM E-score": 0.0577}, {"sequence": "GTCGGGGA", "PBM E-score": 0.113}, {"sequence": "ATTCGAAC", "PBM E-score": 0.105}, {"sequence": "GCGCACGC", "PBM E-score": -0.064}, {"sequence": "GCAGGCGC", "PBM E-score": -0.0349}, {"sequence": "CTGGCTAA", "PBM E-score": -0.0552}, {"sequence": "CAATGGTA", "PBM E-score": 0.126}, {"sequence": "AGGGAGCC", "PBM E-score": -0.343}, {"sequence": "ACAATCAC", "PBM E-score": -0.0305}, {"sequence": "AGTGTAAC", "PBM E-score": 0.119}, {"sequence": "GCCACACA", "PBM E-score": 0.0243}, {"sequence": "CACGCACA", "PBM E-score": -0.0166}, {"sequence": "GAAGAATA", "PBM E-score": -0.0221}, {"sequence": "CGGGGACG", "PBM E-score": 0.0284}, {"sequence": "ACTGTGTC", "PBM E-score": 0.0573}, {"sequence": "ACGAACAA", "PBM E-score": 0.0394}, {"sequence": "AATTAGGG", "PBM E-score": -0.0993}, {"sequence": "AGGGACAA", "PBM E-score": 0.0314}, {"sequence": "GTAAAGGA", "PBM E-score": 0.142}, {"sequence": "CACTTGAG", "PBM E-score": -0.0428}, {"sequence": "ACCCCCTA", "PBM E-score": -0.286}, {"sequence": "CTACTGGA", "PBM E-score": -0.0948}, {"sequence": "TCCGTGAA", "PBM E-score": 0.00225}, {"sequence": "ACGATCGC", "PBM E-score": 0.109}, {"sequence": "AGCGAACA", "PBM E-score": -0.0877}, {"sequence": "ATGTCAGA", "PBM E-score": 0.0454}, {"sequence": "AGATATCC", "PBM E-score": 0.0826}, {"sequence": "AAATGATT", "PBM E-score": 0.197}, {"sequence": "GTACGAAC", "PBM E-score": 0.0543}, {"sequence": "GCAGAACA", "PBM E-score": 0.0362}, {"sequence": "AGGTCTCG", "PBM E-score": -0.0875}, {"sequence": "GTTTCGAA", "PBM E-score": 0.325}, {"sequence": "AGCCCCCA", "PBM E-score": -0.118}, {"sequence": "TCCTTGCA", "PBM E-score": -0.134}, {"sequence": "GCCGGGCC", "PBM E-score": -0.107}, {"sequence": "ACGAATAA", "PBM E-score": 0.101}, {"sequence": "GGGCCTTA", "PBM E-score": -0.205}, {"sequence": "GACCAGAA", "PBM E-score": 0.0766}, {"sequence": "GCGAGGCC", "PBM E-score": -0.131}, {"sequence": "ACCAACCG", "PBM E-score": -0.181}, {"sequence": "ATAACGTA", "PBM E-score": 0.15}, {"sequence": "ATGCTGTG", "PBM E-score": -0.162}, {"sequence": "ATGTTTGA", "PBM E-score": 0.337}, {"sequence": "TCCTGGCA", "PBM E-score": -0.0322}, {"sequence": "CGCCGGGA", "PBM E-score": -0.123}, {"sequence": "GCGCTCCC", "PBM E-score": -0.155}, {"sequence": "CATGTATA", "PBM E-score": 0.0255}, {"sequence": "CACGAACA", "PBM E-score": 0.0211}, {"sequence": "CAATAAAG", "PBM E-score": 0.238}, {"sequence": "ACGCGCAT", "PBM E-score": -0.095}, {"sequence": "CCCCTGGA", "PBM E-score": -0.225}, {"sequence": "GCGAATCA", "PBM E-score": 0.165}, {"sequence": "GCTTAGAC", "PBM E-score": -0.0701}, {"sequence": "CCAAGGCC", "PBM E-score": -0.177}, {"sequence": "ATGAGTGG", "PBM E-score": -0.0925}, {"sequence": "TAAGAGCA", "PBM E-score": -0.0275}, {"sequence": "CACCATGC", "PBM E-score": -0.187}, {"sequence": "GAGTTTTA", "PBM E-score": 0.218}, {"sequence": "AGCACAAA", "PBM E-score": 0.133}, {"sequence": "CAAGACGG", "PBM E-score": -0.0947}, {"sequence": "ACCGAATA", "PBM E-score": 0.0212}, {"sequence": "GTCCCGGA", "PBM E-score": 0.0192}, {"sequence": "ACCATCGT", "PBM E-score": -0.188}, {"sequence": "CAGATGGG", "PBM E-score": -0.123}, {"sequence": "CCTGGTAA", "PBM E-score": -0.0794}, {"sequence": "CCTAGTAG", "PBM E-score": -0.0312}, {"sequence": "ATTGATAA", "PBM E-score": 0.0752}, {"sequence": "CCCGACGA", "PBM E-score": 0.284}, {"sequence": "CGGCGTTC", "PBM E-score": -0.151}, {"sequence": "GCATGAAC", "PBM E-score": -0.0143}, {"sequence": "GCGGAATA", "PBM E-score": 0.197}, {"sequence": "TTTTAAAA", "PBM E-score": 0.329}, {"sequence": "AGGGGAGA", "PBM E-score": -0.0864}, {"sequence": "AGTGTACA", "PBM E-score": -0.00592}, {"sequence": "CGTAGCAA", "PBM E-score": 0.00941}, {"sequence": "GAGGCTTA", "PBM E-score": -0.185}, {"sequence": "CGCAGTCC", "PBM E-score": -0.131}, {"sequence": "CTTCCAAC", "PBM E-score": 0.0668}, {"sequence": "GTGGCTTA", "PBM E-score": -0.0687}, {"sequence": "CGGTAGGC", "PBM E-score": -0.175}, {"sequence": "ACACGTAG", "PBM E-score": -0.209}, {"sequence": "CCTCGAGA", "PBM E-score": -0.0989}, {"sequence": "ACCTCACT", "PBM E-score": -0.0335}, {"sequence": "GCGGGACC", "PBM E-score": -0.0673}, {"sequence": "GAGCTTTA", "PBM E-score": -0.0834}, {"sequence": "TAGACGGA", "PBM E-score": -0.167}, {"sequence": "AAGCTGCT", "PBM E-score": -0.00578}, {"sequence": "TCACGCGA", "PBM E-score": -0.0813}, {"sequence": "AACGGGAG", "PBM E-score": -0.0016}, {"sequence": "GCACGCAC", "PBM E-score": -0.322}, {"sequence": "ACACATAA", "PBM E-score": 0.19}, {"sequence": "CCCCTTAA", "PBM E-score": -0.0805}, {"sequence": "TCTCGGCA", "PBM E-score": 0.0266}, {"sequence": "ACTCTCCG", "PBM E-score": -0.0208}, {"sequence": "TATTACCA", "PBM E-score": 0.0872}, {"sequence": "CTCCTAGC", "PBM E-score": -0.234}, {"sequence": "ACGAATAG", "PBM E-score": -0.145}, {"sequence": "CCAGTAGG", "PBM E-score": -0.117}, {"sequence": "ACGGAGGC", "PBM E-score": -0.187}, {"sequence": "GGAGTTGA", "PBM E-score": -0.134}, {"sequence": "GATCACGC", "PBM E-score": -0.0749}, {"sequence": "TCCCGCAA", "PBM E-score": 0.18}, {"sequence": "CGTGACGA", "PBM E-score": -0.0638}, {"sequence": "ACACTACA", "PBM E-score": 0.0965}, {"sequence": "ACCAATTA", "PBM E-score": 0.199}, {"sequence": "GACAACAC", "PBM E-score": -0.0985}, {"sequence": "CGAGTCGC", "PBM E-score": -0.22}, {"sequence": "AAGCGCAT", "PBM E-score": -0.0201}, {"sequence": "TATAGTAA", "PBM E-score": 0.142}, {"sequence": "CCCCCCTC", "PBM E-score": -0.244}, {"sequence": "TAGTACGA", "PBM E-score": -0.032}, {"sequence": "GACCGTTA", "PBM E-score": -0.0768}, {"sequence": "TCAGGACA", "PBM E-score": 0.00818}, {"sequence": "CGCGTCTC", "PBM E-score": 0.00942}, {"sequence": "CATCGCAC", "PBM E-score": 0.119}, {"sequence": "ACTCTTAT", "PBM E-score": 0.0959}, {"sequence": "GCGGTAGA", "PBM E-score": -0.189}, {"sequence": "TATACAGA", "PBM E-score": 0.0992}, {"sequence": "CGCATACA", "PBM E-score": -0.107}, {"sequence": "ACCTAAAA", "PBM E-score": 0.187}, {"sequence": "GGCGTTCA", "PBM E-score": -0.163}, {"sequence": "CAGTACCC", "PBM E-score": 0.0435}, {"sequence": "ACCCACTG", "PBM E-score": -0.0728}, {"sequence": "ACCCCTCG", "PBM E-score": -0.0124}, {"sequence": "GCTCCACC", "PBM E-score": -0.122}, {"sequence": "AGCTCAAC", "PBM E-score": -0.0948}, {"sequence": "AGTGACTG", "PBM E-score": -0.187}, {"sequence": "ACCGTCGG", "PBM E-score": -0.185}, {"sequence": "ATCGCCGG", "PBM E-score": 0.0652}, {"sequence": "AACCCATA", "PBM E-score": 0.142}, {"sequence": "GTTTTTAA", "PBM E-score": 0.261}, {"sequence": "ACATGATG", "PBM E-score": -0.00206}, {"sequence": "AATTACGG", "PBM E-score": 0.13}, {"sequence": "ATAGAATC", "PBM E-score": -0.016}, {"sequence": "TCTCTGAA", "PBM E-score": 0.0805}, {"sequence": "GCTCTACC", "PBM E-score": -0.167}, {"sequence": "AAAAAGAA", "PBM E-score": 0.289}, {"sequence": "AGTATCCC", "PBM E-score": -0.0151}, {"sequence": "AACATTGT", "PBM E-score": 0.195}, {"sequence": "AATGAAAT", "PBM E-score": 0.231}, {"sequence": "AACTCGGT", "PBM E-score": -0.078}, {"sequence": "GATGCTAC", "PBM E-score": 0.0691}, {"sequence": "CCCGTGCC", "PBM E-score": -0.218}, {"sequence": "AGCGGCCA", "PBM E-score": -0.162}, {"sequence": "CGATCCCC", "PBM E-score": 0.136}, {"sequence": "AAAATAGA", "PBM E-score": 0.203}, {"sequence": "ATTCAGTC", "PBM E-score": 0.0689}, {"sequence": "AAATCACA", "PBM E-score": 0.0138}, {"sequence": "ACGAGAGA", "PBM E-score": -0.00943}, {"sequence": "ATGATGGC", "PBM E-score": 0.035}, {"sequence": "AGCTACAA", "PBM E-score": -0.177}, {"sequence": "AAAATCTA", "PBM E-score": 0.162}, {"sequence": "AAACTCTA", "PBM E-score": 0.162}, {"sequence": "CAGGTTAA", "PBM E-score": 0.0769}, {"sequence": "CTATGAGA", "PBM E-score": -0.0998}, {"sequence": "AGTGCTGC", "PBM E-score": -0.169}, {"sequence": "CAGTTATC", "PBM E-score": -0.0257}, {"sequence": "GGTGGTAA", "PBM E-score": 0.139}, {"sequence": "TGGAAGAA", "PBM E-score": 0.247}]}]}
